Data: PMC4440780, “Turning Escherichia coli into a Frataxin-Dependent Organism” (PLoS Genetics, 2015)
Numbering of substitutions follows the chain as printed. In names and notes the source's numbering stands.

T1: (his)6-IscS, E. coli cysteine desulfurase IscS (E. coli, UniProt P0A6B7 1-404)
T1 construct: IscS, cysteine desulfurase of E. coli; not shown: His6, N-terminal, kept
T1 sequence (looked up): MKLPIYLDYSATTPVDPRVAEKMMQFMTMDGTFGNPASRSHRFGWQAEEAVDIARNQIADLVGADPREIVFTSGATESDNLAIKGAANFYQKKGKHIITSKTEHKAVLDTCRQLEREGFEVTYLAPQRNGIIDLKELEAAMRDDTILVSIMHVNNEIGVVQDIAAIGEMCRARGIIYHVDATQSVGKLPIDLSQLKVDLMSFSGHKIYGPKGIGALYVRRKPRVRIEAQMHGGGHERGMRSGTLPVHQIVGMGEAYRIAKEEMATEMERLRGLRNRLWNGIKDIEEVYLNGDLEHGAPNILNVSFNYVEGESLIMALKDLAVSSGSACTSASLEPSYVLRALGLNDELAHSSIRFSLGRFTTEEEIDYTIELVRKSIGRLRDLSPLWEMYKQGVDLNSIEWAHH

B1: IscU-(his)6, wild-type E. coli IscU scaffold protein (natural protein, UniProt P0ACD4 1-128, looked up)
chain: MAYSEKVIDHYENPRNVGSFDNNDENVGSGMVGAPACGDVMKLQIKVNDEGIIEDARFKTYGCGSAIASSSLVTEWVKGKSLDEAQAIKNTDIAEELELPPVKIHCSILAEDAIKAAIADYKSKREAK
notes: IscU, Fe-S cluster scaffold protein of E. coli K-12 MG1655; coding region of iscU cloned NdeI/HindIII into pET21a+; the methods say the proteins were mixed with Fe(SO4)2(NH4)2, L-cysteine and DTT; By gel filtration it exists mainly as a dimer; also called IscUWT; His-tagged IscUWT; not shown: His6, C-terminal, kept
B2: IscU_(I108M)-(his)6, E. coli IscU with the Ile108Met substitution (natural protein, UniProt P0ACD4 1-128, looked up)
chain: B1 chain with I108M
notes: IscU, Fe-S cluster scaffold protein of E. coli K-12 MG1655; coding region amplified from pIscUIM and cloned NdeI/HindIII into pET21a+; the methods say the proteins were mixed with Fe(SO4)2(NH4)2, L-cysteine and DTT; By gel filtration it exists mainly as a dimer; also called IscUIM; His-tagged IscUIM; not shown: His6, C-terminal, kept

What was measured:
[1] = target: T1, (his)6-IscS, E. coli cysteine …; test: co-elution on anion exchange chromatography (QFF); purified His-tagged proteins mixed anaerobically 1:1:1 (144 uM each) for 40 min with 4-fold excess Fe(SO4)2(NH4)2, 10-fold excess L-cysteine, 5 mM DTT in 50 mM Tris-HCl pH 8; loaded on a 1-mL QFF column, eluted with a gradient to 1 M NaCl; fractions analysed by SDS-PAGE; the single proteins elute at lower salt; settings: both partners purified
[2] = target: the molecule itself; test: SEC; gel filtration on Superdex 75 10/300 GL in 0.1 M Tris-HCl pH 8, 50 mM NaCl; oligomeric state from a calibration curve (ribonuclease A, chymotrypsinogen A, ovalbumin)

Binder | binding result [1] | stoichiometry N [2]
B1 | binds | 
B2 | binds | 2
